PubChem BioAssay AID1963320 (National Center for Advancing Translational Sciences (NCATS), 2024)
Screen size: about 1,300 compounds; about 560 (43%) were called active. The set was probably picked from earlier hits. The shares of active, inactive and inconclusive entries below differ from those in the screen. The call rests on the fitted dose curve; in most records, active means well fitted inhibition curve with a large enough effect; inconclusive means small, poorly fitted or top-dose-only effect; inactive means flat fitted curve, though single readings scatter. Where the call is inconclusive, the potency comes from a doubtful curve fit.
Further: nearly all actives have a fitted effect of over 70% in size.
On the % scale 0 is the no-effect control and ±100 the full control effect; potency means the concentration at half of the fitted maximal effect; tags describe the fitted curve by direction and shape.

These compounds were tested against Luciferin 4-monooxygenase (Photinus pyralis) (UniProt P08659) (assay: Firefly luciferase (FLuc-C-HiBiT) enzymatic inhibition screen - Functional assay). Conditions: purified FLuc-C-HiBiT enzyme, luciferin luminescence; series mostly up to 32.7 µM; activity change, negative = inhibition: at the top concentration.
UniProt P08659, sequence (P08659 whole entry, looked up): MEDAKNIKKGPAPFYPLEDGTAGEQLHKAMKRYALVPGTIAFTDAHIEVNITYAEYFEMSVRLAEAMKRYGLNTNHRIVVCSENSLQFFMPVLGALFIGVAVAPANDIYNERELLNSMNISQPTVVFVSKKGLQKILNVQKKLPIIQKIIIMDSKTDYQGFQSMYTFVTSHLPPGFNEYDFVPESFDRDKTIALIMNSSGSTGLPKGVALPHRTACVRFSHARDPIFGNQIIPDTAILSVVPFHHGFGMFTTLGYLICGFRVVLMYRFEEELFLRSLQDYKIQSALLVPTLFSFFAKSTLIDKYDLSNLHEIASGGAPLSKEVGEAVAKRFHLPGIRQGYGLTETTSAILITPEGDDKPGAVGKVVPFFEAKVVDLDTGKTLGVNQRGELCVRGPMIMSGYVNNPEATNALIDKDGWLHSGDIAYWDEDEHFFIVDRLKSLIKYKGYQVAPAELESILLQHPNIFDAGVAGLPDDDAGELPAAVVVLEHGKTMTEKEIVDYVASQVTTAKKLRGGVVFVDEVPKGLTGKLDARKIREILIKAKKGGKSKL
Summary of the method: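 Luminescence from D-luciferin turnover (10 uM, at KM; ATP 10 uM), read 5-10 min after substrate addition. Beforehand, 10 nM FLuc-C-HiBiT sat with compounds over 30 min at room temperature; PTC124 as control.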
In the case of `O=C(Nc1ccc(F)cc1)c1cc2cccnn2n1`, the Potency is reported as inconclusive: 18 µM [inhibitor, partial curve].
With `Cc1ccc(NC(=O)N2CCC(CCNC(=O)C3CCC3)CC2)cc1F` the Potency was inconclusive: 12.4 µM [inhibitor, partial curve].
For `COc1cccc(C(=O)Nc2ccccc2-c2nc3ccccc3s2)c1`, the “activity change, negative = inhibition” value was inactive: 0.577%.
In the case of `CN1CCC(NC(=O)C(C)(C)Oc2nn(Cc3ncccn3)c3ccccc23)CC1`, the “activity change, negative = inhibition” value is reported as inactive: -0.33% [at 49.3 µM].
In the case of `CC(=O)NC1(C)CCN(Cc2ccc(-c3ccc4c(ccn4C)c3)cc2)C1` (stereo unspecified), the Potency is reported as active: 7.18 µM.
`Cc1cc(-c2cc3c(cn2)CN(Cc2ccccc2O)CCN3)ccn1` was tested, and the Potency was inconclusive: 18 µM [inhibitor, partial curve].
In the case of `Cc1ccc(-c2cc3c(=O)n(CCNC(=O)c4ccc(N(C)C)cc4)ccn3n2)c(C)c1`, the Potency is reported as inconclusive: 3.13 µM [inhibitor, full curve].
For `Cc1ccc(-c2nnc(SCc3ccccc3C)o2)cc1`, the Potency was inconclusive: 11.1 µM [inhibitor, partial curve].
With `O=C(COc1ccc(Cl)cc1)Nc1ccc(-c2nc3ccccc3s2)c(O)c1` the “activity change, negative = inhibition” value was inactive: 1.46%.
`COCCNC(=O)[C@@H](C)C1CC[C@@]2(C)Cc3sc(CSc4ccccc4)nc3[C@@H](C)[C@@H]2[C@H]1O` (stereo partly specified) was tested, and the Potency was inconclusive: 11.1 µM [inhibitor, partial curve].
In the case of `CCc1noc(-c2nc(-c3ccccc3C)no2)n1`, the “activity change, negative = inhibition” value is reported as inactive: -13.7%.
`CCOC(=O)c1ccc(NC2SC(=O)N(Cc3cccc(C(=O)O)c3)C2=O)cc1` (stereo unspecified) was tested, and the Potency was inconclusive: 12.4 µM [inhibitor, partial curve].
With `O=C(Nc1c(C(=O)O)oc2ccccc12)c1ccc(C(F)(F)F)cc1` the Potency was active: 9.89 µM.
For `O=C(COc1ccccc1[N+](=O)[O-])Nc1cccc(-c2nc3ccccc3s2)c1`, the “activity change, negative = inhibition” value was inactive: -14.1%.
`COc1cccc(Nc2ccc(CN3CCC(C)(NC(C)=O)C3)cc2)c1` (stereo unspecified) was tested, and the Potency was inconclusive: 20.2 µM [inhibitor, partial curve].
For `COc1cc(C(=O)Nc2cc(C)c(O)c(-c3nc4ccccc4s3)c2)cc(OC)c1OC`, the “activity change, negative = inhibition” value was inactive: -6.85%.
With `COc1ccc(-c2noc([C@@H]3C[C@@H](O)CN3Cc3cccs3)n2)cc1` the Potency was inconclusive: 20.2 µM [inhibitor, single point].
With `COc1ccc(C(=O)Nc2ccc(-c3nc4ccccc4s3)c(Cl)c2)cc1Cl` the “activity change, negative = inhibition” value was inactive: -12%.
With `CC(C)(C)CN1CCNc2cc(Nc3ccccc3)ncc2C1` the Potency was active: 7.18 µM.
For `O=C(NCCc1cccs1)c1cccc2c1CCN2C(=O)Nc1ccc(F)cc1`, the Potency was active: 0.785 µM.
In the case of `O=C(c1ccccc1C(F)(F)F)N1CCOc2c(cc(-c3nc4ccccc4s3)cc2OC2CCOC2)C1` (stereo unspecified), the “activity change, negative = inhibition” value is reported as inactive: 3.1%.
`O=C(NCC1CC1)C1CCN(C(=O)c2ncn3c2COC(c2ccccc2)C3)CC1` (stereo unspecified) was tested, and the Potency was active: 7 µM.
In the case of `CC(=O)NC1(C)CCN(Cc2cccc(-c3ccc4ccccc4c3)c2)C1` (stereo unspecified), the Potency is reported as active: 11.4 µM.
`COc1ccc(-c2cn3nc(SCC(=O)Nc4ccccc4F)ccc3n2)cc1` was tested, and the Potency was inconclusive: 1.57 µM [inhibitor, full curve].
`COc1ccc(C(=O)COC(=O)CCCC(=O)Nc2ccc(C(C)=O)cc2)cc1` was tested, and the Potency was inconclusive: 9.89 µM [inhibitor, partial curve].
`Cn1c([C@H]2CCN(C3CCCCC3)C2)nc2ccccc21` was tested, and the Potency was inconclusive: 25.4 µM [inhibitor, partial curve, poor fit].
In the case of `CC(C)(Oc1nn(CC2CC2)c2ccc(CN3CCCC3)cc12)C(=O)NC1CCOCC1`, the “activity change, negative = inhibition” value is reported as inactive: -2.58% [at 49.3 µM].
In the case of `C[S+](=O)([O-])CCn1ncc2cc(OCc3cccc(-c4ccc(F)cc4)c3)ccc21`, the Potency is reported as inconclusive: 16.1 µM [inhibitor, partial curve].
In the case of `Cc1ccc(C(=O)O)cc1Nc1nc2ccccc2n2nnnc12`, the Potency is reported as inconclusive: 12.4 µM [inhibitor, partial curve, poor fit].
For `COc1cc(OC)cc(C(=O)Nc2ccccc2-c2nc3ccccc3s2)c1`, the “activity change, negative = inhibition” value was inactive: -4.2%.
`CSCC(=O)N[C@H]1CCN2C(=O)c3cc(-c4ccc(SC)cc4)ccc3NC(=O)[C@H]12` was tested, and the Potency was inconclusive: 11.1 µM [inhibitor, partial curve].
In the case of `CSCC(=O)N[C@H]1CCN2C(=O)c3cc(/C=C/c4ccccc4)ccc3NC(=O)[C@H]12`, the Potency is reported as inconclusive: 14.3 µM [inhibitor, partial curve].
For `COc1ccc(NC(=O)Nc2cccc(-c3ccc(N4CCOCC4)nn3)c2)cc1`, the Potency was active: 1.76 µM.
For `COc1ccc(-c2nc3ccccc3s2)cc1NC(=O)COc1ccc(C)cc1`, the “activity change, negative = inhibition” value was inactive: -10.5%.
With `O=C(Nc1ccccc1)C1CCN(C(=O)c2ncn3c2COC(c2ccccc2)C3)CC1` (stereo unspecified) the Potency was active: 1.57 µM.
For `CC(=O)N1CCNc2cc(Nc3ccc(F)cc3)ncc2C1`, the Potency was active: 5.7 µM.
In the case of `COc1cccc(-c2ncc3c(n2)OCCN(Cc2ccc(F)cc2F)C3=O)c1`, the Potency is reported as inconclusive: 16.1 µM [inhibitor, partial curve].
For `COCCN1CCOc2nc(-c3cccc(N(C)C)c3)ncc2C1=O`, the Potency was inconclusive: 18 µM [inhibitor, partial curve].
For `Cn1nc(-c2ccc3c(c2)OCCO3)nc1N1CCCCC1`, the Potency was active: 9.89 µM.
`O=C(Nc1ccccc1)c1nc2c(o1)CCN(Cc1ccc(O)cc1)CC2` was tested, and the Potency was active: 5.08 µM.
With `CCc1noc(-c2nc(-c3ccc4c(c3)OCO4)no2)n1` the Potency was inconclusive: 9.89 µM [inhibitor, partial curve].
With `O=C(NCCc1ccccc1F)c1nc2sccn2c1Br` the Potency was active: 7 µM.
In the case of `Cc1ccccc1CN1CC[C@H](c2nc3ccccc3s2)C1`, the Potency is reported as inconclusive: 18 µM [inhibitor, partial curve, poor fit].
`CC(C)c1cnc(N2CCC(COc3ccc4c(cnn4CCC(=O)O)c3)CC2)nc1` was tested, and the Potency was inconclusive: 20.2 µM [inhibitor, partial curve, poor fit].
With `Cc1ccc2nc(-c3ccc(NC(=O)COc4c(C)ccc(C)c4C)cc3)sc2c1` the Potency was inconclusive: 11.1 µM [inhibitor, partial curve].
In the case of `Oc1c(Br)cc(Br)cc1-c1nc2ccccc2s1`, the Potency is reported as inconclusive: 12.4 µM [inhibitor, partial curve].
`Brc1ccccc1-n1ncc2c1ncn1nc(Cc3ccccc3)nc21` was tested, and the “activity change, negative = inhibition” value was inactive: -10.7%.
With `COc1ccc(-c2ncc3c(n2)OCCN(Cc2ccccc2)C3=O)cc1` the Potency was inconclusive: 18 µM [inhibitor, partial curve].
With `COc1cccc(-c2cn3ncsc3n2)c1` the Potency was inconclusive: 11.1 µM [inhibitor, partial curve].
With `O=C(Nc1cccnc1)c1nc2c(o1)CCN(Cc1cccc(O)c1)CC2` the Potency was inconclusive: 20.2 µM [inhibitor, partial curve].
In the case of `CN1CCN(C[C@@H]2CN(C(=O)CCCc3ccccc3)C[C@@H]2CO)CC1`, the “activity change, negative = inhibition” value is reported as inactive: 1.79%.
In the case of `CCOc1cccc(NC(=O)CSc2ncc(-c3ccccc3)[nH]2)c1`, the “activity change, negative = inhibition” value is reported as inactive: -16.2%.
With `Oc1ccc(Cl)cc1CN1CCOc2c(O)cc(-c3nc4ccccc4s3)cc2C1` the “activity change, negative = inhibition” value was inactive: -2.98%.
`Nc1ncnc2c1ncn2[C@H]1O[C@H](CO)[C@@H](O)[C@@H]1O` was tested, and the “activity change, negative = inhibition” value was inactive: 2.38%.
With `CC(=O)N1CCCN(c2ccc(-c3nc(-c4ccccc4F)no3)cn2)CC1` the Potency was inconclusive: 15.7 µM [inhibitor, single point].
For `CC(C)c1ccc(C2=CC(c3ccc(C(C)C)cc3)n3nnnc3N2)cc1` (stereo unspecified), the “activity change, negative = inhibition” value was inactive: -0.288%.
With `Cc1ccc(C)c(N2CCN(C(=O)c3ccc(NC(=O)c4nsc5ccccc45)cc3)CC2)c1` the Potency was inconclusive: 9.89 µM [inhibitor, partial curve].
For `Cc1ccc(NC(=O)C2CCN(C(=O)c3ncn4c3COC(c3ccccc3)C4)CC2)cc1C` (stereo unspecified), the Potency was inconclusive: 9.89 µM [inhibitor, partial curve].
In the case of `Cc1cnc(CCNC(=O)Nc2ccc3c(c2)OCCO3)n1C1CC1`, the Potency is reported as inconclusive: 11.1 µM [inhibitor, partial curve].
`COc1cccc(CNC(=O)N2c3ccccc3CC2c2noc(C3CCOCC3)n2)c1` (stereo unspecified) was tested, and the Potency was inconclusive: 9.89 µM [inhibitor, partial curve].
With `CCCc1noc(-c2nc(-c3ccccc3F)no2)n1` the Potency was inconclusive: 9.89 µM [inhibitor, partial curve].
For `COc1ccccc1C(=O)Nc1onc2c1CCCC2`, the Potency was active: 9.89 µM.
With `O=C(NCCc1ccccc1)C1CCN(C(=O)c2ncn3c2COC(c2ccccc2)C3)CC1` (stereo unspecified) the Potency was active: 2.48 µM.
In the case of `CC1(NC(=O)C2CC2)CN(Cc2nc(-c3cccc(F)c3)cs2)C1`, the Potency is reported as inconclusive: 20.2 µM [inhibitor, partial curve].
With `COc1ccc(-c2ccc(CN3CC(C)(NC(C)=O)C3)s2)cn1` the Potency was inconclusive: 20.2 µM [inhibitor, single point].
With `COc1cc(Cl)ccc1-c1ccc(COc2ccc3c(cnn3CCC(=O)O)c2)cc1` the Potency was inconclusive: 20.2 µM [inhibitor, partial curve].
With `Cc1ccc2nc(-c3ccc(NC(=O)Cc4ccccc4)cc3)sc2c1` the Potency was inconclusive: 9.89 µM [inhibitor, partial curve].
`CCC(=O)N1CCN(c2nc3c(s2)CC(C(=O)O)CC3)CC1` (stereo unspecified) was tested, and the Potency was inconclusive: 11.1 µM [inhibitor, partial curve].
`Cc1nn(-c2cccc(Br)c2)c(C)c1[C@@H]1C=C[C@@H](NC(=O)CC(C)(C)CC(=O)O)C1` was tested, and the “activity change, negative = inhibition” value was inactive: -6.99%.
With `OC(c1nc(Nc2ccc(Oc3ccccc3)cc2)n[nH]1)C1CC1` (stereo unspecified) the Potency was inconclusive: 20.2 µM [inhibitor, partial curve].
`Cc1ccc(F)cc1-c1ccc(COc2ccc3c(cnn3CCC(=O)O)c2)cc1` was tested, and the Potency was inconclusive: 18 µM [inhibitor, partial curve].
